± gives the standard deviation. Over roughly 6,600 sequences, “pre-steady-state target cleavage rate” has its median near 0.07; the highest 2% begin near 0.72. This is a selection; strong and weak results do not stand in their true shares.
system: MIWI (PIWIL1) piRISC loaded with Kctd7 piRNA (30 nt); test: pre-steady-state target cleavage rate (min^-1); MIWI and MILI are mouse PIWI proteins and EfPiwi is from a freshwater sponge; tags in brackets are library labels; higher = faster piRNA-guided slicing of the target; conditions: guide: Kctd7 piRNA 5'p-UGUUAAUCUCUCAGAGAAGGUGACAGUGAU; auxiliary factor: 500 nM mouse GTSF1
Summary of the method: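 The pre-steady-state cleavage rate was obtained by Cleave-'n-Seq with a burst-and-steady-state fit. A transcribed, DNA-blocked target RNA library (0.1 nM) was mixed with 1 nM active affinity-purified piRISC carrying one synthetic guide, with or without 500 nM GTSF1 partner protein, in HEPES–potassium acetate buffer at 33 °C for 0–8 or 0–960 min. Uncleaved targets were sequenced and normalised to depth and to weakly complementary targets, with three trials pooled and k3 capped at 0.0001 min^-1.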

First: AUCACUCUCACCUUCUCUGAGAGAAUAACA
Second: UAGUGUGUCACCUUGUCUGAGAGAUUUACA
The “pre-steady-state target cleavage rate” value of the first is higher: 0.196 ± 0.033 for the first, 0.0723 ± 0.022 for the second.

AUCACUGUCACCUUCUGUGAGAGAAUAACA and UAGACUGUCACCAUCUCUGAGAGAUUAUCA are within error of each other in “pre-steady-state target cleavage rate” value: 0.237 ± 0.038 for the first, 0.252 ± 0.032 for the second.

Compared with UUCACUGUCACCUACUCUCAGAGAUUAACA, UAGACUGUCAGCUUCUCUGAGAGAUUUACA is higher in “pre-steady-state target cleavage rate” value: 0.0671 ± 0.0072 for the first, 0.17 ± 0.029 for the second.

Going from UAGUGAGACACCUUCUCUGAGACAUUAACA to UAGUGACAGACCUUCUGUGAGAGUUUAACA, the “pre-steady-state target cleavage rate” value falls from 0.0818 ± 0.012 to 0.0265 ± 0.0065.

First: UAGUGUGCCACCUUCUCUGAGAGAUUAACA
Second: UAGUGUGUCACCUUCCCUGAGAGAUUAACA
The “pre-steady-state target cleavage rate” value of the first is higher: 0.625 ± 0.05 for the first, 0.373 ± 0.057 for the second.

Going from UAGACACACACCUUCUCUGAGAGAUUAUGA to AUCACUGUCACCUCUCUCUGAGAGAUUAACA, the “pre-steady-state target cleavage rate” value rises from 0.0824 ± 0.022 to 0.515 ± 0.031.

First: UAGACAGUCACCUUCUCUGAGAGAUUAAGA
Second: UAGUGAGUCACCUUCUGUGAGAGAUUAAGA
The “pre-steady-state target cleavage rate” value of the first is higher: 0.164 ± 0.025 for the first, 0.0688 ± 0.015 for the second.

Compared with UUCACUCAGACCUUCUCUGAGAGAUUAACA, AUGACUGUCACCUUCUCUGAGAGUUUAACA is lower in “pre-steady-state target cleavage rate” value: 0.431 ± 0.024 for the first, 0.276 ± 0.039 for the second.

Compared with UAGUGAGACACCUUCUCUGAGAGAUUAUGA, UAGUGAGUGACCUUCUGUGAGAGAUUAACA is higher in “pre-steady-state target cleavage rate” value: 0.0557 ± 0.014 for the first, 0.342 ± 0.023 for the second.

UAGUGAGUCACCUUCUCUGACAGAUUAUCA and UAGUCUGUCACCUUCUCUGAGACUUUAACA are within error of each other in “pre-steady-state target cleavage rate” value: 0.0598 ± 0.014 for the first, 0.0402 ± 0.011 for the second.

Compared with UAGUGACUCACCUUCUCUGUGAGAUUAACA, UAGUGACAGGCCUUCUCUGAGAGAUUAACA is lower in “pre-steady-state target cleavage rate” value: 0.168 ± 0.013 for the first, 0.123 ± 0.014 for the second.

Compared with UAGUGACAGACCUUCACUGAGACAUUAACA, UAGUGACUCACCUUCUCUGAGAGUAAAACA is higher in “pre-steady-state target cleavage rate” value: 0.018 ± 0.006 for the first, 0.0828 ± 0.011 for the second.

Compared with UAGACCUGUCACCUUCUCUGAGAGAUUAACA, AUCACUGUCACCUUCUCUCAGAGAUUUACA is lower in “pre-steady-state target cleavage rate” value: 0.652 ± 0.043 for the first, 0.125 ± 0.018 for the second.

Compared with UAGUGACUCACCUUCUCAGACAGAUUAACA, UAGACAGUCACCUUCUCUGAGAGAUUAUGA is higher in “pre-steady-state target cleavage rate” value: 0.0193 ± 0.0039 for the first, 0.101 ± 0.017 for the second.

AUCACUGUCACCUUCACUGAGAGUUUAACA and AUCACUGUCACCUAGUCUGAGAGAUUAACA are within error of each other in “pre-steady-state target cleavage rate” value: 0.576 ± 0.098 for the first, 0.627 ± 0.025 for the second.

UAGUGACAGUGCUUCUCUGAGAGAUUAACCA and UACACUGUCACCUUCUCUGUGUGAUUAACA are within error of each other in “pre-steady-state target cleavage rate” value: 0.0112 ± 0.0033 for the first, 0.0208 ± 0.011 for the second.

First: UAGUGACAGUGCAUCUCUGAGAGAUUAAGA
Second: UACACUGUCACCUUGUCUCAGAGAUUAACA
The “pre-steady-state target cleavage rate” value of the first is lower: < 0.0001 for the first, 0.0344 ± 0.0058 for the second.

Going from UAGUGUGUCACCUUCUCUGAGAGAUAAUCA to AUCACACUCACCUUCUCUGAGAGAUUAACA, the “pre-steady-state target cleavage rate” value rises from 0.143 ± 0.036 to 0.643 ± 0.04.

Going from UAGUGUGUCACGCUUCUCUGAGAGAUUAACA to UAGUGUGUCACCUUCUCUGACAGAUUAAGA, the “pre-steady-state target cleavage rate” value falls from 0.411 ± 0.028 to 0.00756 ± 0.0046.

Going from UUCACUGUCUCCUUCUGUGAGAGAUUAACA to UAGUGACAGUCCUUCUGUGAGUGAUUAACA, the “pre-steady-state target cleavage rate” value falls from 0.589 ± 0.037 to 0.00421 ± 0.0028.

Compared with UUCACAGUCACCUACUCUGAGAGAUUAACA, AUCACUGUCACCUUCUCAGUGAGAUUAACA is lower in “pre-steady-state target cleavage rate” value: 0.611 ± 0.034 for the first, 0.0218 ± 0.0055 for the second.

First: UUCACUGUCACCUUCUCUGAGAGAAUUAACA
Second: UACACUGUCACCUUCUCUGUGAGAUUAUCA
The “pre-steady-state target cleavage rate” value of the first is higher: 0.641 ± 0.098 for the first, 0.115 ± 0.036 for the second.

UACACUGUGACCUUCUCUGAGUGAUUAACA and UUCACUGUGACCUUCUCUGAGUGAUUAACA are within error of each other in “pre-steady-state target cleavage rate” value: 0.0211 ± 0.0063 for the first, 0.0243 ± 0.003 for the second.

— the supplement of paper PMC10338343
